Measured values taken from the RNAGym collection of RNA variant scans (doi:10.1093/nar/gkz1192).
Read counts are not given, so values of variants with three or more changes are uncertain.

B1: CPEB3 Ribozyme (parent)
chain: UAACAGGGGGCCACAGCAGAAGCGUUCACGUCGCAGCCCCUGUCAGAUUCUGGUGAAUCUGCGAAUUCUGCUGUAUAUCUC

Variants of: B1
Assay: self-cleavage, relative activity (ratio to wild type); higher = more cleavage; in vitro, sequencing
Method in brief: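 After error-prone PCR and barcoding, CPEB3 ribozyme mutant libraries were transcribed with T7 RNA polymerase at 37°C for 5 hours, then given 15 min with DNase I before an EDTA stop, and they cleaved during both steps. Reverse transcription with template switching preceded Illumina sequencing. Relative activity divides a variant's cleaved/total read fraction by the unmutated ribozyme's. At least 5 reads were required per variant, and three batches were averaged.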
Work on UAACAGGGGGCCACAGCAGAAGCGUCCACGUCGCUGCCCCUGUCAGAUUCUGGUGAUUCUGCGAAUUCUGCUGCAUAUCUC yielded a self-cleavage of 0.21.
In the case of UAACAGGGGGCCACAGCAGAAGCGUCCACGUCGCUGUCCCUGUCAGAUUCUGGUGAAUCUGCGAAUUCUGCUGUAUAUCUC, the self-cleavage is reported as 0.29.
Work on UAACAGGGGGCCACAGCAGAAGCGUCCACGUCGCUGCCCCUCUCAGAUUCCGUUGAAGCUGCGAAUUCUGCUGUAUAUCUC yielded a self-cleavage of 0.07.
For UAACAGGGGGCCACAGCAGAAGCGUCCACGUCGCUGCCCCUGUCAGAUUCCGGUGAAUCUGCGAAUUCUGCUGUAUAUCUC, the self-cleavage was 0.17.
Variant UAACAGGGGGCCACAGCAGAAGCGUCCACGUCGCUGCCCCUGUCAGAUUCCGGUGAAUCUGCGAACUCUGCAGUAUAUCUC has a self-cleavage of 0.04.
In the case of UAACAGGGGGCCACAGCAGAAGCGUCCACGUCGCAGCCCCUGUCCGAUUCUGGUGAAUCUGCGAGUUCUGCUGUAUAUCUC, the self-cleavage is reported as 0.24.
With UAACAGGGGGCCACAGCAGAAGCGUCCACGUCGCAGCCCCUGUCGGAUUCUGGUGAGUCUGCGAUUUCUGCUGUAUAUCUC the self-cleavage was 0.07.
With UAACAGGGGGCCACAGCAGAAGCGUCCACGUCGCAGCCCCUGUCGGAUUCUGGUGAUUCUGCGAAUUGUGCUGUAUAUCUC the self-cleavage was 0.11.
Work on UAACAGGGGGCCACAGCAGAAGCGUCCACGUCGCAGCCCCUGUCUUAUUCUGGUGAAUCUGCGGAUUCUGCUGUAUAACUC yielded a self-cleavage of 0.1.
With UAACAGGGGGCCACAGCAGAAGCGUCCACGUCGCAGCCCCUGUCUGAGUCUGGUGAAUCUGCGAAUUCUGCCGUAUAUCUC the self-cleavage was 0.15.
In the case of UAACAGGGGGCCACAGCAGAAGCGUCCACGUCGCAGCCCCUGUCUGAUUCUGGUGAAUCUGCGAAAUCUGCUGUAUACCUC, the self-cleavage is reported as 0.1.
Variant UAACAGGGGGCCACAGCAGAAGCGUCCACGUCGCAGCCCCUGUCAGGUUCUGGUGAGUCUGCGAAUUCCGCUGUAUAUCUC has a self-cleavage of 0.12.
In the case of UAACAGGGGGCCACAGCAGAAGCGUCCACGUCGCAGCCCCUGUCAGGUCCUGGUGAAUCUGCGAAUUCUGCUGUAUAUCUC, the self-cleavage is reported as 0.17.
For UAACAGGGGGCCACAGCAGAAGCGUCCACGUCGCAGCCCCUGUCAGGUUCUGGUGAAUCUGCGAAUUCGGCUGUAUAUCCC, the self-cleavage was 0.14.
In the case of UAACAGGGGGCCACAGCAGAAGCGUCCACGUCGCAGCCCCUGUCAGUUUCUGGUGAGUCCGCGAAUUCCGCUGUAUAUCCC, the self-cleavage is reported as 0.07.
UAACAGGGGGCCACAGCAGAAGCGUCCACGUCGCAGCCCCUGUCAGUCUCUGGUGAAUCUGCGAAUCCUGCUGUACAUCUC showed a self-cleavage of 0.07.
For UAACAGGGGGCCACAGCAGAAGCGUCCACGUCGCAGCCCCUGUCAGUUUCUGGUGAAUCCGCGAAUUCCACUGUAUAUUUC, the self-cleavage was 0.16.
UAACAGGGGGCCACAGCAGAAGCGUCCACGUCGCAGCCCCUGUCAGAUUCUGGUGGAUCUGAGAAUUCGGCUGUAUAUCUC showed a self-cleavage of 0.08.
Work on UAACAGGGGGCCACAGCAGAAGCGUCCACGUCGCAGCCCCUGUCAGAUUCUGGUGAGUAUGCGAAUUCUGCCGUAUAUCUC yielded a self-cleavage of 0.12.
In the case of UAACAGGGGGCCACAGCAGAAGCGUCCACGUCGCAGCCCCUGUCAGAUUCUGGUGAGUCCGCGAAUUCCGCUGUAUAUCUC, the self-cleavage is reported as 0.15.
UAACAGGGGGCCACAGCAGAAGCGUCCACGUCGCAGCCCCUGUCAGAUUCUGGUGAGUCUGCGAAUUCUGCCGUAUAUCUC gave a self-cleavage of 0.31.
In the case of UAACAGGGGGCCACAGCAGAAGCGUCCACGUCGCAGCCCCUGUCAGAUUCUGGUGAGUCUGCGAAUUCUGCUGCAUAUCUC, the self-cleavage is reported as 0.69.
UAACAGGGGGCCACAGCAGAAGCGUCCACGUCGCAGCCCCUGUCAGAUUCUGGUGAGUCUGCGAAUUCUGCUGUAUACCUC showed a self-cleavage of 0.5.
Work on UAACAGGGGGCCACAGCAGAAGCGUCCACGUCGCAGCCCCUGUCAGAUUCUGGUGAGUCUGCGAAUUCUGCUGUAUAUCCC yielded a self-cleavage of 0.2.
For UAACAGGGGGCCACAGCAGAAGCGUCCACGUCGCAGCCCCUGUCAGAUUCUGGUGAAUCUGCGCAUUCUGCUGUAUAUCCC, the self-cleavage was 0.63.
UAACAGGGGGCCACAGCAGAAGCGUCCACGUCGCAGCCCCUGUCAGAUUCUGGUGAAUCUGCGAGUUCCGCAGUAUAUCUC showed a self-cleavage of 0.08.
UAACAGGGGGCCACAGCAGAAGCGUCAACGUCGCAGCCCCUGUCAGAUUCUGGUGAAUCUGCGAAUCCUGCUGUAUAUCUC gave a self-cleavage of 0.17.
UAACAGGGGGCCACAGCAGAAGCGUCUACGUUGCAGCCCCUGUCAGAUUCUGGUGAAUCUGCGAAUUCUGCUGUAUAUCUC showed a self-cleavage of 0.08.
For UAACAGGGGGCCACAGCAGAAGCGUCUACGUCGCAGCCCCUGUCAGAUUCUGGUGAAUCUGCGAAUUCUGCGGUAUAUCUC, the self-cleavage was 0.16.
In the case of UAACAGGGGGCCACAGCAGAAGCGUCCAUGUCGCAGCCCCUGUCAGAUUCUGGUGUAUCUGCGAAUUCUGCUGUACAUCUC, the self-cleavage is reported as 0.12.
In the case of UAACAGGGGGCCACAGCAGAAGCGUCCAUGACGCAGCCCCUGUCAGAUCCUGGUGGAUCUGCGAAUUCUACUGUAUAUCUC, the self-cleavage is reported as 0.05.
UAACAGGGGGCCACAGCAGAAGCGUCCAUGUCGCAGCCCCUGUCAGAUACUGGUGAAUCUGCGAAUUCUGCUGUAUAUCUC gave a self-cleavage of 0.37.
UAACAGGGGGCCACAGCAGAAGCGUCCAUGUCGCAGCCCCUGUCAGAUUCUGGUGAAUCUGCGAAUUCUGCAGUAUAUCUC showed a self-cleavage of 0.21.
Work on UAACAGGGGGCCACAGCAGAAGCGUCCACGUUGCAGCCCCUGUCAGUUUCUGGUGAAUCUGCGAAUUCUGCUGUGUAUCUC yielded a self-cleavage of 0.12.
